Read counts are not given, so values of variants with three or more changes are uncertain.

B1: CPEB3 Ribozyme (parent)
chain: UAACAGGGGGCCACAGCAGAAGCGUUCACGUCGCAGCCCCUGUCAGAUUCUGGUGAAUCUGCGAAUUCUGCUGUAUAUCUC

The variants in the data set derive from B1. The data set can be described thus: self-cleavage, relative activity (ratio to wild type); higher = more cleavage; in vitro, sequencing. The method, boiled down: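 Barcoded CPEB3 ribozyme mutants, produced by rounds of error-prone PCR, self-cleaved while being transcribed with T7 RNA polymerase for 5 hours at 37°C and during a subsequent 15 min DNase I step before EDTA was added. Sequencing of template-switched cDNA on Illumina gave cleaved and total reads, and DNA sequencing assigned barcodes to variants. Each variant's relative activity is its cleaved/total read fraction divided by the unmutated ribozyme's fraction, averaged across three batches. A variant needed a minimum of 5 reads.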
Consider UAACAGGGGGCCACAGCAGAAGCGCUCACGUCGCAGCCCCUGUCAGAUCCAGGUGAAUCUGCGAAUUCAGCUGUAUAACUC, for which the self-cleavage was found to be 0.08.
Next, UAACAGGGGGCCACAGCAGAAGCGCUCACGUCGCAGCCCCUGUCAGAUCCUGGUGAAUCUGCGAAUUCUGCUGUAUACCUC: 0.1.
UAACAGGGGGCCACAGCAGAAGCGCUCACGUCGCAGCCCCUGUCAGAUGCUGGUGAAUCCGCGAAUUCAGCUGUAUAUCUC: the self-cleavage was found to be 0.09.
With UAACAGGGGGCCACAGCAGAAGCGCUCACGUCGCAGCCCCUGUCAGAUCCUGGUGAAUCUGCGAAAUCUGCUGUAUAUCUC, the self-cleavage worked out at 0.
With UAACAGGGGGCCACAGCAGAAGCGCUCACGUCGCAGCCCCUGUCAGAUUCCGGUGAACCUGCGAAUUCUGCUGUAUAUCCC, the self-cleavage stood at 0.05.
UAACAGGGGGCCACAGCAGAAGCGCUCACGUCGCAGCCCCUGUCAGAUUCCGGUGGAUCUGCGAAUUCUGCUGUAAAUCUC: the self-cleavage came out at 0.12.
Regarding UAACAGGGGGCCACAGCAGAAGCGCUCACGUCGCAGCCCCCGUCAGAUUCUGGUGAAUCUGCGAGCUCUGCUGUAUAUCUC, the self-cleavage turned out to be 0.23.
The value for UAACAGGGGGCCACAGCAGAAGCGCUCACGUCGCAGCCCCUGUCAGAUCCUGGUGAAUCUGCGAAUUCAGCUGUAUAUCUC was 0.08; that for UAACAGGGGGCCACAGCAGAAGCGCUCACGUCGCAGCCCCUGCCAGAUUCUGGUGAAUAUGCGAAUUCUGCUGUAUGUCUC was 0.46; that for UAACAGGGGGCCACAGCAGAAGCGCUCACGUCGCAGCCCCCGUCAGAUUCUGGUGAAUCUGCGGAUUCUGCUGUAUACCUC was 0.1.
The value for UAACAGGGGGCCACAGCAGAAGCGCUCACGUCGCAGCCCCUGCCUGAUCCUGGUGAAUCUGCGAAUUCUGCUGUAUACCUC was 0.21; that for UAACAGGGGGCCACAGCAGAAGCGCUCACGUCGCAGCCCCUGUCAGACUCUGGUGAAACUGCGAAUUCUGCUGUAUAUCCC was 0.42.
The value for UAACAGGGGGCCACAGCAGAAGCGCUCACGUCGCAGCCCCUGACAGAUUCUGGUGAAUCAGCGAAUUCAGCUGUAUACCCC was 0.06.
Consider UAACAGGGGGCCACAGCAGAAGCGCUCACGUCGCAGCCCCUGUCAGAUUCCGUAGAAUCUGCGAAUUCUGCUGUAUAUCUC, for which the self-cleavage came to 0.23.
Next, UAACAGGGGGCCACAGCAGAAGCGCUCACGUCGCAGCCCCUGUCAGAUCCUGGUGAAUCUGCGGAUUCUGCUGUAUAUCUC: 0.26; UAACAGGGGGCCACAGCAGAAGCGCUCACGUCGCAGCCCCCGUCAUAUUCUGGUGAAUCUGCGAAUUCUGCUGUAUAUCUC: 0.08.
Consider UAACAGGGGGCCACAGCAGAAGCGCUCACGUCGCAGCCCCUGCCAGAUUCCGGUGAUUCUGCGAAUUCUGCUGUAUAUCUC, for which the self-cleavage was determined as 0.08.
Regarding UAACAGGGGGCCACAGCAGAAGCGCUCACGUCGCAGCCCCUGUCAGAUCCUGGUGAAUCUGCGAAUUCCGCCGUAUAUCUC, the self-cleavage is 0.07.
Next, UAACAGGGGGCCACAGCAGAAGCGCUCACGUCGCAGCCCCUGCCAGAUUAUGGUGAAUCUGCGGAUUCUGCUGUAUAUCUC: 0.24; UAACAGGGGGCCACAGCAGAAGCGCUCACGUCGCAGCCCCUGCCAGGUUCUGGUGAAUCCGCGAAUUCUGCUGUAUAUCCC: 0.12; UAACAGGGGGCCACAGCAGAAGCGCUCACGUCGCAGCCCCUGUCAGAUCCUGGUGAAUCUGCGAAUUCUGCUGUAUAUCAC: 0.15.
As for UAACAGGGGGCCACAGCAGAAGCGCUCACGUCGCAGCCCCCGUCAGAUUCCGGUGAAUCUGCGAAUUCUGCUGUAUAUCUC, the self-cleavage was 0.14.
Next, UAACAGGGGGCCACAGCAGAAGCGCUCACGUCGCAGCCCCUGUCAGAUUCAGGUGAGCCUGCGAAUUCUACUGUAUAUCUC: 0.12; UAACAGGGGGCCACAGCAGAAGCGCUCACGUCGCAGCCCCCGUCGGAGUCUGGUGGAUCUGCGAAUUCUGCUGUAUAUCUC: 0.44; UAACAGGGGGCCACAGCAGAAGCGCUCACGUCGCAGCCCCUGCCAGAUUCUGGUGAAUCUGCGAACUCUGCAGUAUGUCUC: 0.18.
UAACAGGGGGCCACAGCAGAAGCGCUCACGUCGCAGCCCCCGUCAGGUUCUGGAGAAUCUGCGAAUGCUGCUGUAUAUCUC: the self-cleavage was 0.2.
Consider UAACAGGGGGCCACAGCAGAAGCGCUCACGUCGCAGCCCCUGCCAGAUACUGGUGAAUCUCCGAAUUCUGCCGUAUAUCUC, for which the self-cleavage is 0.36.
Next, UAACAGGGGGCCACAGCAGAAGCGCUCACGUCGCAGCCCCUGCCAGAUUCUGGGGAAUCCGCGAAUUCUGCUGUAUAUCUC: 0.11; UAACAGGGGGCCACAGCAGAAGCGCUCACGUCGCAGCCCCUGACUGUUUCUGGUGAACCUGCGAAUUCUGCUGUAUACCUC: 0.08; UAACAGGGGGCCACAGCAGAAGCGCUCACGUCGCAGCCCCCGUCAGAUUCUGGUGAAUCCGCGAGUUCUGCUGUUUAUCUC: 0.12.
Next, UAACAGGGGGCCACAGCAGAAGCGCUCACGUCGCAGCCCCUGUCAGAUUCCGGUGGGUCUGCGAAUUCUGCUGUAUAUCUC: 0.36; UAACAGGGGGCCACAGCAGAAGCGCUCACGUCGCAGCCCCCGUCAGGUUCUGGUGAAUCUGCGAAUUCUGCUGUAUAUCCC: 0.29.
For UAACAGGGGGCCACAGCAGAAGCGCUCACGUCGCAGCCCCCGACAGAUUCUGGUGAAUCUGCGAAUUCUGCUGUAUAUCCC, the self-cleavage came to 0.21.
Turning to UAACAGGGGGCCACAGCAGAAGCGCUCACGUCGCAGCCCCUGUCAGACUCUGGUGAAUCUGCGAACACCGCUGUAUAUCUC, the self-cleavage was determined as 0.06.
Next, UAACAGGGGGCCACAGCAGAAGCGCUCACGUCGCAGCCCCUGACAGAUUCUGGAGAAUCUGCAAAUUCUGCUGUAUGUCUC: 0.16; UAACAGGGGGCCACAGCAGAAGCGCUCACGUCGCAGCCCCUGUCAGACUCUGGUGGAUCUGCGAAUUCUGCUGAAUAUCUC: 0.07; UAACAGGGGGCCACAGCAGAAGCGCUCACGUCGCAGCCCCUGUCAGAUUCCGGUGGAUCUGCGAAUUCUGCUGUAUAUCUC: 0.11.
For the variant UAACAGGGGGCCACAGCAGAAGCGCUCACGUCGCAGCCCCUGCCAGAUUCUGGUGAAUCUGCGAAUCCUGCUGUAUAUCUC, the self-cleavage was 0.1.
The value for UAACAGGGGGCCACAGCAGAAGCGCUCACGUCGCAGCCCCUGCCAGAUUCUGGUGAAUCUGCGAAUUCUGCUGUAUUUCUC was 0.32; that for UAACAGGGGGCCACAGCAGAAGCGCUCACGUCGCAGCCCCUGUCAGAUUCCGAUGAAUCUGCGAAUUCUGCUGUAUAUCUC was 0.27; that for UAACAGGGGGCCACAGCAGAAGCGCUCACGUCGCAGCCCCUGACAGAUUCGGGUGAAUCUGCGAAUUCUGCUGUAUACCUC was 0.1.
UAACAGGGGGCCACAGCAGAAGCGCUCACGUCGCAGCCCCUGUCAGAGUCUGGUGAAUCUGCGAAUCCUGCUGUAUACCUU: the self-cleavage was determined as 0.08.
The value for UAACAGGGGGCCACAGCAGAAGCGCUCACGUCGCAGCCCCUGCCAGAUUCUGGUGAAUCUGCGAAAUCUGCUGUAUAUCUC was 0.14; that for UAACAGGGGGCCACAGCAGAAGCGCUCACGUCGCAGCCCCCGUCAGAUUCUGGUGAGUCUGCGAAUUCUGCUGUAUAUCUC was 0.11.
Next, UAACAGGGGGCCACAGCAGAAGCGCUCACGUCGCAGCCCCUGUCAGAUACUGGUGAAUCCUGGAAUUCUGCCGUAUAUCUC: 0.05; UAACAGGGGGCCACAGCAGAAGCGCUCACGUCGCAGCCCCUGUCAGACUCCGGUGAAUCUGCGAAUUCUGCUGUAUAUCUC: 0.22.
The value for UAACAGGGGGCCACAGCAGAAGCGCUCACGUCGCAGCCCCUGUCAGAUACUGGUGAAACUGCGAAUCCUGCUGUAUAUCUC was 0.13; that for UAACAGGGGGCCACAGCAGAAGCGCUCACGUCGCAGCCCCUGUCAGAAUCUGGAGAAUCUGCGAAUUCUGCUGUAUAUCUC was 0.16.
For UAACAGGGGGCCACAGCAGAAGCGCUCACGUCGCAGCCCCUGCCAGAUUCUGGUGAAUCUGCGAAUUCUACUGUAUAUCUC, the self-cleavage amounted to 0.17.
For UAACAGGGGGCCACAGCAGAAGCGCUCACGUCGCAGCCCCCGUCAGGUUCCGGUGAAUCUGCGAAUUCUGCUGUAAGUCUC, the self-cleavage came to 0.03.
With UAACAGGGGGCCACAGCAGAAGCGCUCACGUCGCAGCCCCUGUCAGACUCUGGUGAAUCUGCGAAUUCUGCUGUAUAACUC, the self-cleavage came out at 0.22.
Next, UAACAGGGGGCCACAGCAGAAGCGCUCACGUCGCAGCCCCUGUCAGACUCUGGUGAAUCCGCGAAUUCUGCUGUAUAUCUC: 0.13; UAACAGGGGGCCACAGCAGAAGCGCUCACGUCGCAGCCCCCGUCAGAUUCUGGUGAAUCUGCGCAUUCUGCUGUAUAUCUC: 0.18; UAACAGGGGGCCACAGCAGAAGCGCUCACGUCGCAGCCCCUGUCAGACUCUGUUGAAUCUGCGAAUUCUGCUGUAUAUCUC: 0.14.
On to UAACAGGGGGCCACAGCAGAAGCGCUCACGUCGCAGCCCCUGACAGAUUCUGGUGAAUCUGCGAAUUCUGCUGUAUAUCCC, for which the self-cleavage stood at 0.28.
On to UAACAGGGGGCCACAGCAGAAGCGCUCACGUCGCAGCCCCUGUCAGAUCCUGGUGAAUCUGCGAGCUCUGCCGUAUAUCUC, for which the self-cleavage turned out to be 0.1.
As for UAACAGGGGGCCACAGCAGAAGCGCUCACGUCGCAGCCCCUGUCAGAUUCAGGCGAAUCUGCGAAUUCUGCUGCAUAUCUC, the self-cleavage was determined as 0.19.
Next, UAACAGGGGGCCACAGCAGAAGCGCUCACGUCGCAGCCCCUGCCAGAUUCUGGUGAACCUGCGAAUUCUGCUGUAUAUCUC: 0.19; UAACAGGGGGCCACAGCAGAAGCGCUCACGUCGCAGCCCCUGUCAGACUCUGGUGAAUCUGCGAACUCUGCAGUAUAUCUC: 0.15.
UAACAGGGGGCCACAGCAGAAGCGCUCACGUCGCAGCCCCUGCCAGACUCUGGUGAAUCUGCGAGUUCUGCUGUAUAUCUC: the self-cleavage came out at 0.17.
Turning to UAACAGGGGGCCACAGCAGAAGCGCUCACGUCGCAGCCCCGGUCAGAUUCUGGUGAAUCUGCGAAUUCUGCUGUAAAUCUC, the self-cleavage was 0.06.
Regarding UAACAGGGGGCCACAGCAGAAGCGCUCACGUCGCAGCCCCUGUCAGAUUCCGGUGAAUCUGCGCAAUCUGCCGCAUAUCUC, the self-cleavage was found to be 0.2.
The value for UAACAGGGGGCCACAGCAGAAGCGCUCACGUCGCAGCCCCCGUCAGCUUCUGGUGAAUCUGCGGAUUCUGCUGUAUAUCUC was 0.13.
As to UAACAGGGGGCCACAGCAGAAGCGCUCACGUCGCAGCCCCCGUCAGAUUCUGGUGUAUCUGCGAAUUCAGCUGUAUUUCUC, the self-cleavage was found to be 0.07.
Next, UAACAGGGGGCCACAGCAGAAGCGCUCACGUCGCAGCCCCUGACAGAUUCUGGAGAAUCUGCGAAUUCUGCUGUAUAUCUC: 0.13; UAACAGGGGGCCACAGCAGAAGCGCUCACGUCGCAGCCCCUGUCAGAUCCUGGCGAGUCUGCGAAUUCUGCUGUAUAUCUC: 0.11; UAACAGGGGGCCACAGCAGAAGCGCUCACGUCGCAGCCCCCGUCAGAUUCUGGUGAAUCUGCGAAUUCUGCUGUAUACCUC: 0.16.
Next, UAACAGGGGGCCACAGCAGAAGCGCUCACGUCGCAGCCCCUGCCAGACUCUGGUGAAUCUGCGAAUUCUGCUGUAUAUCUC: 0.19.

Values taken from the RNAGym collection of RNA variant scans (doi:10.1093/nar/gkz1192).
